Measured values from the supplement of paper PMC3334620.
Over roughly 33,000 sequences, “E-score (-0.5 to 0.5)” has its median near -0.054; the highest 2% begin near 0.35. Some of the results follow.

These sequences were tested against T1, Stb5 (UniProt P38699) (assay: PBM E-score (8-mer binding enrichment) (E-score (-0.5 to 0.5)); higher = stronger / more preferred TF binding; most listed sequences are background and not binding sites). Settings: protein concentration: 200 nM; construct: GST-full length.
T1 sequence: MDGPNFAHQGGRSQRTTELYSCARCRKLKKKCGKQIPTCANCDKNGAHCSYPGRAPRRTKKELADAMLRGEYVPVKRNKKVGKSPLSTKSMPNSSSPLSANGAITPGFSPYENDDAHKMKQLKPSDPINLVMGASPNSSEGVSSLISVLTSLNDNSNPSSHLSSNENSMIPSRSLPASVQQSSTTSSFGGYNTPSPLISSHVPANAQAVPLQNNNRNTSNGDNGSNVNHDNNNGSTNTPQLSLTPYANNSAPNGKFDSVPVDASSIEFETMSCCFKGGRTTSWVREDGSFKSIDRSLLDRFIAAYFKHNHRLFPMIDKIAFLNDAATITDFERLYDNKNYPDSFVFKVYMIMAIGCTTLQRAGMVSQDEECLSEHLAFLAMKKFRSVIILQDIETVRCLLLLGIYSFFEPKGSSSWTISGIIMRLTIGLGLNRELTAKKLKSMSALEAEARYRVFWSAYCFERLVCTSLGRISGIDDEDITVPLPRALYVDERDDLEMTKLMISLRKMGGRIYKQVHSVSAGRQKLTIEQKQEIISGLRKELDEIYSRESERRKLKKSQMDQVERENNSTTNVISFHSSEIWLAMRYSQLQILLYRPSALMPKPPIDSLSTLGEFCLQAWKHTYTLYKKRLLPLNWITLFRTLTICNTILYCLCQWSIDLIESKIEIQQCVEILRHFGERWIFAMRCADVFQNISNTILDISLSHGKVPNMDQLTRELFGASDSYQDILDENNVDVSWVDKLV
In short: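 Universal all-10-mer Agilent arrays, fresh or stripped once, were converted to double-stranded form by primer extension. GST-tagged yeast transcription factors from PURExpress in vitro transcription/translation, full-length or DNA-binding domain only, were applied at about 100-200 nM and detected with fluorescent anti-GST. After masliner normalisation, the Universal PBM Analysis Suite scored each ungapped eight-base word together with its reverse complement by E-score.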

Sequence	PBM E-score
TTAGAAAA	-0.0901
CTGAGCTA	-0.156
TAACTGAA	-0.244
GCAGTGCA	-0.17
ACCACGGA	0.166
CACACAAA	-0.288
GTGCGCGA	-0.00029
CAGTTCAC	-0.188
AGAGGCAC	-0.179
ATTAACAG	-0.0815
ATATTGTG	-0.132
GTCAGCTA	-0.163
GTATGGCA	-0.207
ATGCCACG	-0.041
CAGTATCA	-0.137
GCTGGCTA	-0.324
ATATGTAG	-0.174
AAAACACG	-0.0278
CCAGCGGG	0.25
ATGCAGAA	-0.237
AGTTTTCC	0.11
AGCTTAAC	-0.221
GCAGTAAA	0.148
CCTTCTAA	-0.319
ATATCATG	0.0063

Sequence	PBM E-score
CGAATACA	-0.0285
ATTATTAC	0.228
CATGAATG	-0.0209
CCTAGGGC	-0.145
ATGTGCAG	-0.222
ACGGTAGT	0.191
AAGGTGTC	0.081
GCCCACAC	-0.0569
AATAGGGG	-0.0342
CGCAGGAG	-0.149
CTATGCTC	-0.244
AAACGCTG	-0.081
ATTAGGGA	-0.108
CTTCCTTC	-0.195
CATACTTC	-0.0981
AGAAAGAT	-0.187
GTAACCAC	-0.133
TGCGGCAA	0.0503
CGATGTGA	-0.0768
ATACCTGG	0.0825
CAGTGAGA	-0.143
CGAAGACG	0.124
AACGTTGT	-0.107
TCCAAACA	-0.225
GACAAGAC	-0.0885

Sequence	PBM E-score
CGCTTTTC	-0.00357
CTCTGGCA	-0.222
CTTTTACC	-0.0389
TAAGATAA	-0.0372
CTGTTGTC	0.00312
TTCTTCAA	-0.0893
AATCAGCC	-0.0814
AGGGTACA	-0.18
ACAGGGTC	-0.0853
ATCTTGAA	-0.15
GTTTATGA	-0.0122
CGTCTTAA	-0.0278
AGCAAAAT	0.00935
CGTGGGCC	0.0271
CTGGACGA	-0.0219
CGGAACAA	0.235
AAAACGGC	0.21
AGTCGGTC	0.259
AATGTTAC	-0.0138
AGCTTCTC	-0.249
GTCACGAA	-0.132
CGGACAAA	0.348
CACATACC	0.0991
GGTGGCGA	-0.0644
GAACTTAC	-0.142

Sequence	PBM E-score
GCCAACTA	-0.189
ATTTAGTC	-0.0872
CGAAAAGC	-0.00632
CCCGTGTC	0.175
CAGAGGAA	-0.174
TGTCGTAA	-0.227
CCATTCGC	-0.188
TCCAAGCA	-0.0699
CACGGTCG	0.0812
CTGTCTAA	-0.032
TCTAGGCA	-0.0493
GATTCCGC	0.154
CGGTACCG	0.24
ATCGTAAC	0.0562
ACGGTGGG	0.126
GGCTTTTA	0.312
CGCGAGGA	-0.124
AAATAAGC	-0.0955
ACTTGTAA	-0.0526
AATATGTC	-0.0217
GCTGGTCC	0.0105
CATCGATA	0.049
CGCCGACG	0.395
ACACCCCC	-0.0732
GGCGCCAC	0.164

Sequence	PBM E-score
CAGCTTCC	-0.221
GTGGGAAC	-0.241
AAAGTAAG	-0.119
CATCGGGC	0.214
TGGATACA	-0.256
GGCGGACC	0.412
CCCGTTGA	0.221
GCCAGCAA	-0.0363
CTAAACAC	0.0396
ACGACTAA	-0.134
CACCTCAG	-0.221
CGTGAGGC	-0.133
CAAGGCCA	-0.186
AGGGATCG	-0.0472
CAGATTGC	-0.172
ACCGCCCT	0.268
GGCGGGAA	0.287
CTCATCCC	-0.0546
ACGACTAT	-0.134
GGAACCTA	-0.00354
CGCCTACG	0.0464
ACTGAATG	0.00391
ATGAACGA	-0.0854
TGACCAAA	-0.249
ATTAGGCG	0.0607

Sequence	PBM E-score
AATAATCT	0.0195
ATGACATC	-0.108
CCCTAGGG	-0.196
CACCTCAA	-0.249
CTTGCCAA	-0.256
TTCAGGAA	-0.22
AAAGACCA	-0.216
GGTGACGA	-0.0798
CAGCTCCC	-0.173
GAACCTCC	0.0508
ATTAAACA	-0.0475
AATATCTA	-0.186
TGACAACA	-0.149
ACTAGGCC	-0.0202
AGAGGTGG	-0.0537
AGTAAAGG	-0.00499
CACGCGAG	-0.19
GAGCAGAC	-0.239
CACATGCC	0.00879
CTTGGGGA	-0.174
ACTCGCAT	-0.0876
CCGTAAGG	0.141
GTTAGATA	-0.147
ACAGCTGC	-0.14
ATGATTGA	-0.161

Sequence	PBM E-score
ATAACCTG	-0.226
ACCACACA	-0.14
GGAGGGCC	-0.00738
CTGACCTA	-0.0591
ATATGGTC	-0.0686
CCACGCAC	-0.0634
CTCGCTTA	0.00719
ATCTGCCA	-0.118
AAATTGTT	-0.0308
ATAACTTA	-0.0529
GAGTTGTA	-0.0359
CCCCGCCG	0.381
AGTGGAAT	0.0263
CGACTGAG	-0.318
CATTAACA	0.00043
CCTAACGC	0.171
AGCTGAAT	-0.183
CATCAGTA	-0.204
CACTGTTA	-0.161
CGTTCCTC	0.0313
AACCGAGG	-0.25
ACCGCTGC	0.364
